Test results as given in the RNAGym collection of RNA variant scans (doi:10.7554/elife.90254).
The source gives no read counts; variants with many changes may rest on few reads.

B1: LINE1-full (parent)
chain: UACGUAGGUGGUUUUCCCCUGAUAGUGCUAAGGGGGCCUGGAAGUUUGGACUGGGCAGAGCUCAACACAGCGUGGCAAAGUGGCUGUGGCUAGACUGCCUCUCUGGAUUCCUCGUCACUCAGCAGGGCAUCUCUGAGAGAAAUGCC

Variants of: B1
Assay: self-cleavage, relative activity (ratio to wild type); higher = more cleavage; in vitro, sequencing; the parent is a self-cleaving ribozyme
Work on G49A A69U U87G A141G yielded a self-cleavage of 0. Variant U12G U15C A77C has a self-cleavage of 0. With A42G U81A C113U the self-cleavage was 1.18. U39A A69G U100C showed a self-cleavage of 2.45. U20G A64G U119A A129G showed a self-cleavage of 0.57. For A59G G93U U109C, the self-cleavage was 0.37. In the case of A43U U52A G54U U115A U132G, the self-cleavage is reported as 0.55. For U104C A107G A141G, the self-cleavage was 1.17. Variant A30G U52C G137U A141G G144U has a self-cleavage of 0.79. Work on U1C U46A A78G A107U U143C yielded a self-cleavage of 0.72. Work on G36C U45C A117U yielded a self-cleavage of 1.11. Variant A22U U73A U102A has a self-cleavage of 0.99. A57G U109C A142G gave a self-cleavage of 0.44. U13C U130C U134C showed a self-cleavage of 1.17. U14C G88A A124G gave a self-cleavage of 0.06. For U115G A138G U143C, the self-cleavage was 2.33. U26C A78G A117G A140G showed a self-cleavage of 1.62. U52C U102C A141G showed a self-cleavage of 1.29. A43G U87A A107U showed a self-cleavage of 0.61. Variant G27A A94G A142G has a self-cleavage of 0.09. U1C U45G A141G showed a self-cleavage of 2.03. For U13C A107G A121G, the self-cleavage was 0.84. U1C A50G U52A showed a self-cleavage of 0.59. A6G C19U A117G gave a self-cleavage of 1.06. Variant G4A A59G G114A A136U has a self-cleavage of 0.2. U62C U112A A117G showed a self-cleavage of 0. U9C A24G A140G showed a self-cleavage of 1.84. Variant U20C A107G A117U U134C has a self-cleavage of 1.77. A2G A59U U143C showed a self-cleavage of 0.97. For G89A A117U U132C, the self-cleavage was 0.02. Variant U47C U85C C95U U134A has a self-cleavage of 0.1. With C28U U46C U73A U115C A117U the self-cleavage was 2.03. In the case of U45A A92G U132C G144A, the self-cleavage is reported as 0. With U45C C103A A107G the self-cleavage was 1.21. Variant U15C U46C G97A A136U has a self-cleavage of 0.74. Work on A64U U73C A107G U119A yielded a self-cleavage of 0.64. In the case of A64G A77G U132C A142G, the self-cleavage is reported as 0.42. With A6G U81C U108C A121U the self-cleavage was 2.04. For A31G U46C A57U, the self-cleavage was 0.36. Work on U20C A31G U73G yielded a self-cleavage of 1.06. C56U U85C U100A gave a self-cleavage of 0.02. With A79U A94G U100A the self-cleavage was 0.22. In the case of U15C A77G A124U, the self-cleavage is reported as 2.86. U13C U73A A78U A107U U109C A117G U119C showed a self-cleavage of 0.46. Work on U62C A69C U87A yielded a self-cleavage of 0.09. U9A U20A A78G U100C A138G showed a self-cleavage of 1.84. U15C A22U U62C showed a self-cleavage of 0.06. In the case of U13A A138U A140U, the self-cleavage is reported as 1.19. U13C U100A A107G U132C gave a self-cleavage of 1.08. With A77G U91C U134C the self-cleavage was 1.47. With U13C U20C U52A G60A U102C U115C the self-cleavage was 0. U20A A77G A124U A140U showed a self-cleavage of 1.84. With G8A U13C U81A C128G the self-cleavage was 2.2. G35U A117G A142G gave a self-cleavage of 1.46. A42U A67G G114A U115C showed a self-cleavage of 0.34. With U23C A31U A140G the self-cleavage was 0.77. U20G U62A A67G gave a self-cleavage of 0. A31G U46A C146U gave a self-cleavage of 0.48. With G55U A59G C146U the self-cleavage was 0.05. For U13A U23C A67G, the self-cleavage was 0.6. For A22U U52C U134A A140G U143C, the self-cleavage was 0.32. C63A A64G A65G U91A showed a self-cleavage of 0.03. U26C U85C A142G gave a self-cleavage of 0.54. Variant U15C U108C U115C G139U has a self-cleavage of 1.91. A50U U73C U132C gave a self-cleavage of 1.52. Work on U5C A42G A43G A59U A67U G75C yielded a self-cleavage of 0. With U85C G106C U115A the self-cleavage was 0.16. For A22G U132A A141G, the self-cleavage was 2.3. In the case of U47C U130C U143C, the self-cleavage is reported as 1.79. In the case of U5G A24G U29A U46A U96C, the self-cleavage is reported as 0. In the case of U12C A64G A138U U143C, the self-cleavage is reported as 0.49. U15C U62C A141G showed a self-cleavage of 0.24. With A65G U85A C103U the self-cleavage was 0.02. U13C G40C A136G gave a self-cleavage of 1.24. In the case of C3U U14C U115G, the self-cleavage is reported as 1.16. In the case of U20C A30G U81A C103A, the self-cleavage is reported as 1.27. U15C A22G G40A A141G gave a self-cleavage of 1.37. With U13C U39A A77C U143C the self-cleavage was 1.48. Variant U9C U81G C113U has a self-cleavage of 1.09. With A22G A31U G35U A121U the self-cleavage was 0.86. U62C C90A U132C showed a self-cleavage of 0.02. U102A U130A A140G gave a self-cleavage of 2.97. U47A A79G U100C gave a self-cleavage of 0.92. With U12G A42G U46C A65G the self-cleavage was 0. With A31G U47C A64G U108C G114U the self-cleavage was 0. Work on U14C U47C U73C A141G yielded a self-cleavage of 1.58. In the case of U20C C37U U45C U87A U102C A136U, the self-cleavage is reported as 0.04. In the case of U26A U39C C113A, the self-cleavage is reported as 0.76. U13C A138U A140G gave a self-cleavage of 1. Work on U14A U46C A59G A94G G97A U143C yielded a self-cleavage of 0.09. U109A U115C U143A gave a self-cleavage of 0.94. Variant G11A U14C A43G U134A has a self-cleavage of 0.55. G72U G106U U130C gave a self-cleavage of 0.89. Variant U46C A50U A79G C145A has a self-cleavage of 0.76. Work on U5G U46C U109A U134C yielded a self-cleavage of 1.92. In the case of A6U A65U A79G, the self-cleavage is reported as 0.17. Work on U109C A124U U143A yielded a self-cleavage of 1.59. With U12A U15C A22G U39A U62C U100C U134A the self-cleavage was 0. U20C A64U U132C showed a self-cleavage of 0. U39A A64G A124U U143C showed a self-cleavage of 0.07. In the case of A94G U104A U134A, the self-cleavage is reported as 0.61. A22U A67G U96C G114A gave a self-cleavage of 0.06. Variant A43G U91C U119C A140U has a self-cleavage of 0. For U14C U81A U104C A107G C113U A117U, the self-cleavage was 2.53. In the case of U45C A65G A124U, the self-cleavage is reported as 0. Variant A69C U73A G93A U134G has a self-cleavage of 0.02. U20A U85C A129G gave a self-cleavage of 0. U39C U81A G86A A124G U134C A138G gave a self-cleavage of 0.03. U9G A22G C71U gave a self-cleavage of 0.89. With U39A A42G A50G G72A the self-cleavage was 0.14. For A42U U81A U96C U102C U115C U143A, the self-cleavage was 0. In the case of G40U U47C U115A, the self-cleavage is reported as 2.27. In the case of U29C G41A C68U, the self-cleavage is reported as 0.07. For A42G A79G A117G, the self-cleavage was 0. With A42G G106A A124G A142G the self-cleavage was 1.82. U5C A67G A117U gave a self-cleavage of 1.24. With U23C A30G A69U the self-cleavage was 0.12. C76U C128A A129G gave a self-cleavage of 1.35. U9C U39C U52A C56A A92G C99A U115C showed a self-cleavage of 0. A77U G114A G126C showed a self-cleavage of 2.1. For A59G U62C U115C, the self-cleavage was 0. In the case of U5C U14C U39A A57U A69G U73A A124G U134C, the self-cleavage is reported as 0.54. Variant U39A A79G C84U U143C has a self-cleavage of 0. Work on A2U U14C U46C U100C yielded a self-cleavage of 0.3. A42G G97U U108C A142G gave a self-cleavage of 0.15. A24G A42U U81A A142G showed a self-cleavage of 2.04. Work on U85C A107G C123G yielded a self-cleavage of 0.12. Work on C84U A124C A136G yielded a self-cleavage of 0.11. In the case of U52A A67U U102C U104A U112C U134C A136U, the self-cleavage is reported as 0.68. For G34C A79G U96C, the self-cleavage was 0. In the case of U104C G114A A138G, the self-cleavage is reported as 2.07. U52C U104C U130C U143A showed a self-cleavage of 2.04. U47A A50G U85C showed a self-cleavage of 0.1. U12A U14C A142G gave a self-cleavage of 0.5. G8U U14C U52A showed a self-cleavage of 1.56. U20A A50G U143C showed a self-cleavage of 0.29. Work on U13C G80A U96C U104C yielded a self-cleavage of 0.22. Work on U23A U47A U134A yielded a self-cleavage of 1.17. U15C U46C A69G G82A A138G showed a self-cleavage of 0.52. For U13C U91C G144A, the self-cleavage was 1.12. For A43G U102C A129G, the self-cleavage was 2.19. In the case of A79U G93U G106U, the self-cleavage is reported as 0.08. In the case of U9C U91A A92G A136G, the self-cleavage is reported as 0.08. For A31G U100C U112A, the self-cleavage was 0.37. G27U G33A U109A G127U gave a self-cleavage of 0.8. Variant U23C G58U A69G U115C has a self-cleavage of 0.31. A92U U130C G135A gave a self-cleavage of 0.66. Work on U14C A57G A79G yielded a self-cleavage of 0.94. Work on U13C U109C U112C A136G yielded a self-cleavage of 2.91. With A69G U96C U134G the self-cleavage was 0.84. Work on U109C A117U A142G yielded a self-cleavage of 1.21. For U45A G49C A69U A138G, the self-cleavage was 0.05. Work on A22G G36C A65G A67G U91A yielded a self-cleavage of 0. For U39C A57G U130C, the self-cleavage was 1.05. A6G A79G A136G gave a self-cleavage of 2.04. For U39C A57G A79U U143C, the self-cleavage was 0.6. Work on U46C A94G U102A U130C yielded a self-cleavage of 0. U14C A59G U115C gave a self-cleavage of 0.4. With U15C A50G A107G the self-cleavage was 1.62. For G4A U15C U46C A57U, the self-cleavage was 0.21. For A6G A50G A78G, the self-cleavage was 0.54. U47G A77U C128U showed a self-cleavage of 1.35. U39C U108C U109C showed a self-cleavage of 0. In the case of A24U A94G U134C, the self-cleavage is reported as 0.84. With A24U U46G U73A the self-cleavage was 1.67. With U9C A50G A124G U130C the self-cleavage was 1.15. Variant A79G A117G A138G has a self-cleavage of 1.2.
